Experimental data as given in article PMC12820563, “FoxP3 forms a head-to-head dimer in vivo and stabilizes its multimerization on adjacent microsatellites”.
Some of the results follow.

Each sequence was assayed against T1, MBP-FoxP1dN (Mus musculus, UniProt P58462 326-579) (assay: PD-seq (MBP pull-down with sequencing); 20 mM Tris-HCl pH 7.5, 100 mM NaCl, 1.5 mM MgCl2, 0.4 uM protein, 0.1 uM dsDNA library, 30 min, room temperature, amylose pull-down; high values mean tight binding). Settings: protein: recombinant; tags: His6-MBP; chain copies: 2; dsDNA, one strand shown.
T1 sequence: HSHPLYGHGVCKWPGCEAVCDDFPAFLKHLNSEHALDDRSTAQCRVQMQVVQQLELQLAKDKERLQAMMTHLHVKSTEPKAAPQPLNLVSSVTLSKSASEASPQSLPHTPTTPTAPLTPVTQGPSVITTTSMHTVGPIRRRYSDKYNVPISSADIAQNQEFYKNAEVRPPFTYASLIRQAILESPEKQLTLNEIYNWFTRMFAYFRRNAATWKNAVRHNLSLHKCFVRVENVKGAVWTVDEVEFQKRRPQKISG
How it was run: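 Mouse FoxP3 or FoxP1 fragment lacking the N-terminus, His6-MBP-tagged and expressed in E. coli, was incubated at 0.4 µM with 0.1 µM Klenow-filled degenerate double-stranded DNA library for 30 min at room temperature in Tris pH 7.5 buffer with NaCl and MgCl2. Complexes captured on amylose resin were washed three times and their DNA sequenced on Illumina. Binding is reads-per-million enrichment of pull-down over input, replicates pooled.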

First: GATGATTGTTCTCCCAGCTGATGAATTACAATGTTCGAGTAAACAAATTTTCCTAATCTTTCTGTTCAAGCGCCATCTAC
Second: GATGATTGTTCTCCCAGCTGATGAATTCCCATCTTCGAGTAAACAAATTTTCCTAATCTTTCTGTTCAAGCGCCATCTAC
The binding signal of the first is higher: 1.4 RPM ratio (pull-down/input) for the first, 0.81 RPM ratio (pull-down/input) for the second.

Compared with “GATGATTGTTCTCCCAGCTGATGAATTTTTTTGCTCGAGTAAACAAATTTTCCTAATCTTTCTGTTCAAGCGCCATCTAC”, “GATGATTGTTCTCCCAGCTGATGAATTACGGTACTCGAGTAAACAAATTTTCCTAATCTTTCTGTTCAAGCGCCATCTAC” is lower in binding signal: 0.948 RPM ratio (pull-down/input) for the first, 0.94 RPM ratio (pull-down/input) for the second.

Going from “GATGATTGTTCTCCCAGCTGATGAATTCTGGGGATCGAGTAAACAAATTTTCCTAATCTTTCTGTTCAAGCGCCATCTAC” to “GATGATTGTTCTCCCAGCTGATGAATTCTGAGTTTCGAGTAAACAAATTTTCCTAATCTTTCTGTTCAAGCGCCATCTAC”, the binding signal rises from 0.833 RPM ratio (pull-down/input) to 0.869 RPM ratio (pull-down/input).

Going from “GATGATTGTTCTCCCAGCTGATGAATTTTCCGTCTCGAGTAAACAAATTTTCCTAATCTTTCTGTTCAAGCGCCATCTAC” to “GATGATTGTTCTCCCAGCTGATGAATTTTACGGCTCGAGTAAACAAATTTTCCTAATCTTTCTGTTCAAGCGCCATCTAC”, the binding signal falls from 0.878 RPM ratio (pull-down/input) to 0.833 RPM ratio (pull-down/input).

Compared with “GATGATTGTTCTCCCAGCTGATGAATTTAAGAATTCGAGTAAACAAATTTTCCTAATCTTTCTGTTCAAGCGCCATCTAC”, “GATGATTGTTCTCCCAGCTGATGAATTATCATTTTCGAGTAAACAAATTTTCCTAATCTTTCTGTTCAAGCGCCATCTAC” is higher in binding signal: 0.81 RPM ratio (pull-down/input) for the first, 1.32 RPM ratio (pull-down/input) for the second.

Going from “GATGATTGTTCTCCCAGCTGATGAATTCCATGGGTCGAGTAAACAAATTTTCCTAATCTTTCTGTTCAAGCGCCATCTAC” to “GATGATTGTTCTCCCAGCTGATGAATTACAGGCGTCGAGTAAACAAATTTTCCTAATCTTTCTGTTCAAGCGCCATCTAC”, the binding signal rises from 0.733 RPM ratio (pull-down/input) to 1 RPM ratio (pull-down/input).

First: GATGATTGTTCTCCCAGCTGATGAATTAAATGTATCGAGTAAACAAATTTTCCTAATCTTTCTGTTCAAGCGCCATCTAC
Second: GATGATTGTTCTCCCAGCTGATGAATTAAAATATTCGAGTAAACAAATTTTCCTAATCTTTCTGTTCAAGCGCCATCTAC
The binding signal of the first is higher: 1.4 RPM ratio (pull-down/input) for the first, 1.1 RPM ratio (pull-down/input) for the second.

Going from “GATGATTGTTCTCCCAGCTGATGAATTTAAAACATCGAGTAAACAAATTTTCCTAATCTTTCTGTTCAAGCGCCATCTAC” to “GATGATTGTTCTCCCAGCTGATGAATTTCCGTCTTCGAGTAAACAAATTTTCCTAATCTTTCTGTTCAAGCGCCATCTAC”, the binding signal falls from 1.37 RPM ratio (pull-down/input) to 0.917 RPM ratio (pull-down/input).

Compared with “GATGATTGTTCTCCCAGCTGATGAATTGCACTTTTCGAGTAAACAAATTTTCCTAATCTTTCTGTTCAAGCGCCATCTAC”, “GATGATTGTTCTCCCAGCTGATGAATTTTACAGTTCGAGTAAACAAATTTTCCTAATCTTTCTGTTCAAGCGCCATCTAC” is lower in binding signal: 1.55 RPM ratio (pull-down/input) for the first, 0.94 RPM ratio (pull-down/input) for the second.

Compared with “GATGATTGTTCTCCCAGCTGATGAATTTAATCTATCGAGTAAACAAATTTTCCTAATCTTTCTGTTCAAGCGCCATCTAC”, “GATGATTGTTCTCCCAGCTGATGAATTACCCCTTTCGAGTAAACAAATTTTCCTAATCTTTCTGTTCAAGCGCCATCTAC” is higher in binding signal: 0.877 RPM ratio (pull-down/input) for the first, 0.932 RPM ratio (pull-down/input) for the second.

Going from “GATGATTGTTCTCCCAGCTGATGAATTTGACTTATCGAGTAAACAAATTTTCCTAATCTTTCTGTTCAAGCGCCATCTAC” to “GATGATTGTTCTCCCAGCTGATGAATTATCACGGTCGAGTAAACAAATTTTCCTAATCTTTCTGTTCAAGCGCCATCTAC”, the binding signal rises from 0.908 RPM ratio (pull-down/input) to 0.984 RPM ratio (pull-down/input).

Going from “GATGATTGTTCTCCCAGCTGATGAATTGATGAACTCGAGTAAACAAATTTTCCTAATCTTTCTGTTCAAGCGCCATCTAC” to “GATGATTGTTCTCCCAGCTGATGAATTTCTGGTTTCGAGTAAACAAATTTTCCTAATCTTTCTGTTCAAGCGCCATCTAC”, the binding signal rises from 0.906 RPM ratio (pull-down/input) to 0.937 RPM ratio (pull-down/input).

Compared with “GATGATTGTTCTCCCAGCTGATGAATTGCATCTTTCGAGTAAACAAATTTTCCTAATCTTTCTGTTCAAGCGCCATCTAC”, “GATGATTGTTCTCCCAGCTGATGAATTAAATTTCTCGAGTAAACAAATTTTCCTAATCTTTCTGTTCAAGCGCCATCTAC” is lower in binding signal: 1.83 RPM ratio (pull-down/input) for the first, 0.864 RPM ratio (pull-down/input) for the second.

Going from “GATGATTGTTCTCCCAGCTGATGAATTGTACGTATCGAGTAAACAAATTTTCCTAATCTTTCTGTTCAAGCGCCATCTAC” to “GATGATTGTTCTCCCAGCTGATGAATTGCATTAATCGAGTAAACAAATTTTCCTAATCTTTCTGTTCAAGCGCCATCTAC”, the binding signal rises from 1.14 RPM ratio (pull-down/input) to 1.47 RPM ratio (pull-down/input).

Going from “GATGATTGTTCTCCCAGCTGATGAATTTCACAACTCGAGTAAACAAATTTTCCTAATCTTTCTGTTCAAGCGCCATCTAC” to “GATGATTGTTCTCCCAGCTGATGAATTTGGTCTTTCGAGTAAACAAATTTTCCTAATCTTTCTGTTCAAGCGCCATCTAC”, the binding signal falls from 0.936 RPM ratio (pull-down/input) to 0.928 RPM ratio (pull-down/input).

With “GATGATTGTTCTCCCAGCTGATGAATTTCAATTCTCGAGTAAACAAATTTTCCTAATCTTTCTGTTCAAGCGCCATCTAC” the binding signal was 0.85 RPM ratio (pull-down/input).
